Measured values from PubChem BioAssay AID463173 (ICCB-Longwood Screening Facility, Harvard Medical School, 2010).
The campaign covered roughly 52,000 compounds. About 1,700 (3.3%) were called active. No stated cut-off is given here; in the data, active means survival mostly below about 52% (no sharp cut-off); inactive means mostly above about 56%. This is one part of the list.

test system: Wild type; test: S. aureus survival, RN4220 and DeltatarO strains – OD600, teichoic acid synthesis inhibitors, primary screen (AID 463173); details: S. aureus RN4220 wild type/DeltatarO growth, OD600, 18 h, hits give low values, screened at 18.75 µg/mL (by protocol)

| SMILES | survival |
| --- | --- |
| N#Cc1ccccc1NC(=O)C(=O)NCC(c1ccc2c(c1)OCO2)N1CCOCC1 (configuration not stated) | inactive: 73% |
| CC(=O)N1CCOc2cc(S(=O)(=O)Nc3c(C)cccc3C(C)C)c(Cl)cc21 | inactive: 78% |
| CC(C)CCNC(=O)c1c2c(nc3ccccc13)C(=O)N(C1CCCCC1)C2 | inactive: 78% |
| Cc1ccc(-c2nc(CS(=O)CC(=O)N3CCN(c4ccc(F)cc4)CC3)c(C)o2)cc1 (configuration not stated) | inactive: 72% |
| O=C(Nc1ccccc1F)C1CCN(S(=O)(=O)c2ccc3c(c2)CCCN3C(=O)C2CCC2)CC1 | inactive: 74% |
| CCCCN(C)C(=O)c1ccc2c(c1)N(Cc1ccc(F)cc1)C(=O)c1ccccc1S2(=O)=O | inactive: 104% |
| CC(=O)c1ccc(NC(=O)COc2ccccc2-c2nc(C(C)C)no2)cc1 | inactive: 80% |
| CCOC(=O)c1c(C)[nH]c(C)c1S(=O)(=O)NCC(=O)Nc1cc(Cl)ccc1OC | active: -6% |
| COc1ccc(C)cc1Nc1c2c(nc3ccccc13)CCC2 | inactive: 81% |
| N#C/C(=C\c1ccc(N2CCCCC2)o1)C(N)=O | inactive: 112% |
| O=C(COc1ccccc1)Nc1nnc2n1CCS2 | inactive: 88% |
| CCC(=O)Nc1ccc(-c2nc3ccc(NC(=O)CC)cc3[nH]2)cc1 | inactive: 113% |
| CCOC(=O)C1CCN(S(=O)(=O)c2cc(-c3cc(C)no3)ccc2OC)CC1 | inactive: 105% |
| CCc1cccc2c(C=C(C#N)C#N)cn(CC(=O)N3CCCCCC3)c12 | inactive: 100% |
| CC(C)(C)C(=O)Cn1c(=O)n(CCCCCC(=O)NCc2ccccc2Cl)c(=O)c2sccc21 | inactive: 81% |
| Cc1ccc(NC(=O)C(Cc2ccccc2)NS(=O)(=O)c2ccc3c(c2)oc(=O)n3C)cc1C (configuration not stated) | inactive: 77% |
| CC(=O)c1ccc(N2CCN(C(=O)Nc3cn(CC(C)C)c(=O)c4ccccc34)CC2)cc1 | inactive: 69% |
| O=C(Cc1ccccc1)Nc1nc2ccccc2s1 | inactive: 127% |
| COc1cc(OC)cc(-c2nc3nc(C)c(CCC(=O)Nc4ccccc4)c(C)n3n2)c1 | inactive: 74% |
| O=C(CSc1nc(-c2ccco2)nc2cc(=O)[nH]n12)Nc1ccc(F)cc1 | inactive: 65% |
| Cc1ccc(C)c(NC(=O)CSc2nnc(NC(=O)Nc3ccccc3)s2)c1 | inactive: 68% |
| CCc1ccc(NC(=O)Cn2c(C(=O)OC)cc3oc(C)cc32)cc1 | inactive: 88% |

| SMILES | survival |
| --- | --- |
| CCN1CCN(Cc2nc3cc(NC(=O)c4cccc([N+](=O)[O-])c4)ccc3n2CC)CC1 | inactive: 116% |
| COc1ccc(C2CC(=O)Nc3cc4c(cc32)OCO4)c(OC)c1 (configuration not stated) | inactive: 98% |
| Cc1ccccc1OCC(=O)Nc1ccc2[nH]c(=O)sc2c1 | inactive: 125% |
| CCOC(=O)N1CCC(NC(=O)c2ccc3c(c2)N(Cc2ccc(F)cc2)C(=O)c2ccccc2S3=O)CC1 (configuration not stated) | inactive: 91% |
| COc1ccc(CCNC(=O)c2nc(SCc3ccc(F)cc3)ncc2Cl)cc1OC | inactive: 86% |
| Cc1ccc(CCNC(=O)C(C)n2nc(C)c3c(C)n(-c4ccc(C)cc4)nc3c2=O)cc1 (configuration not stated) | inactive: 75% |
| CCCCCCC(=O)Nc1cc2nc3c(nc2cc1C)c(=O)n(C)c(=O)n3C | inactive: 135% |
| CCc1ccc(C2CC(=O)c3c([nH]c(C(=O)OC4CCCCCC4)c3C)C2)cc1 (configuration not stated) | inactive: 127% |
| COc1ccc(NC(=O)CN2CCN(C3CCCCC3)C(=O)C2=O)cc1 | inactive: 135% |
| Cc1ccc(CNC(=O)c2cc(=O)c3cc(C)c(C)cc3o2)cc1 | inactive: 86% |
| COc1ccc(CNC(=O)C2CCCN(C(=O)c3cnn(-c4ccc(F)cc4)c3-n3cccc3)C2)cc1 (configuration not stated) | inactive: 75% |
| CCOC(=O)c1c(-c2ccc(Br)cc2)csc1NC(=O)c1ccc(C(C)(C)C)cc1 | inactive: 65% |
| COc1ccc(NC(=O)c2cc(=O)c3cc(C)cc(C)c3o2)cc1 | inactive: 82% |
| Cc1nc2c(-c3ccccc3)c(C)[nH]n2c(=O)c1Cc1ccc(Br)cc1 | active: -5% |
| CCOc1cccc2sc(NC(=O)c3ccc(S(=O)(=O)N4CCCCC4)cc3)nc12 | inactive: 75% |
| O=C(NCCS(=O)(=O)N1CCN(c2ccc(F)cc2)CC1)c1ccccc1Br | inactive: 68% |
| CCOc1ccc(CC(=O)NCCc2sc(-c3cccc(F)c3)nc2C)cc1 | inactive: 58% |
| CC(=O)Nc1cccc(NC(=O)CSc2cn(CC(=O)N3CCCC3)c3ccccc23)c1 | inactive: 95% |
| CC(CNc1nc2ccccc2c2nc(-c3ccccc3)nn12)c1ccccc1 (configuration not stated) | inactive: 118% |
| O=C(C1=C(O)C(=O)N(Cc2ccccc2)C1c1ccco1)c1ccco1 (configuration not stated) | inactive: 103% |
| CCCS(=O)(=O)c1nc(S(=O)(=O)c2ccc(C)cc2)c(NCC(C)C)s1 | inactive: 92% |
| CC1CCN(S(=O)(=O)c2ccc3c(ccc(=O)n3CC(=O)NCc3ccccc3)c2)CC1 | inactive: 22% |

| SMILES | survival |
| --- | --- |
| Cc1ccc(CCNC(=O)c2oc(=O)c3ccccc3c2-c2ccc(C)cc2)cc1 | inactive: 17% |
| CC(C)(C)OC(=O)N1CCC(c2c(C(=O)NCc3ccco3)cnn2-c2ccc(F)cc2F)CC1 | inactive: 70% |
| CCC(=O)Nc1ccc(C)cc1-c1nc2ccccc2n(CC(=O)c2ccc(C)cc2)c1=O | inactive: 85% |
| CCOC(=O)c1c(C)c(C(=O)NCc2ccc(Cl)cc2)c(C)n1C | inactive: 84% |
| COc1ccccc1NC(=O)C1=C(C)Nc2nc(-c3ccco3)nn2C1c1cccc(C)c1 (configuration not stated) | inactive: 90% |
| CCc1ccc(-n2c(=O)c3c(C)c(C(=O)N(C)C)sc3n(CC(=O)Nc3cc(Cl)ccc3C)c2=O)cc1 | inactive: 129% |
| CCCCNC(=O)Cn1c(=O)cc(C)c2c(C)nn(-c3cccc(Cl)c3C)c21 | inactive: 83% |
| Cc1noc2ncnc(N3CCCC(C(=O)Nc4cc(F)ccc4F)C3)c12 (configuration not stated) | inactive: 81% |
| Cc1cc(-n2c(SCc3ccccc3F)nc3[nH]ncc3c2=O)ccc1Cl | inactive: 78% |
| Cc1ccc(-c2noc(-c3ccc(NC4CCCC4)c([N+](=O)[O-])c3)n2)cc1 | inactive: 114% |
| Cc1cc(Cl)ccc1NC(=O)C1CCCN1S(=O)(=O)c1ccc2c(c1)CCCC(=O)N2 (configuration not stated) | inactive: 74% |
| CCc1ccc2c(c1)C1(NN=C(c3ccccc3)S1)C(=O)N2 (configuration not stated) | inactive: 15% |
| CCc1c(C)sc2c1CCN(C(=O)Nc1ccccc1Cl)C2c1ccc(OC)cc1 (configuration not stated) | inactive: 78% |
| CC(C)(C)OC(=O)N1CCC(c2nnc(SCc3ccccc3Cl)o2)CC1 | active: -2% |
| CS(=O)(=O)c1ncc(N(Cc2ccco2)Cc2cccs2)c(C(=O)Nc2ccccc2F)n1 | inactive: 77% |
| COc1ccc(Cl)cc1NC(=O)C(C)n1c(=O)cc(C(F)(F)F)c2c(C)nn(C)c21 (configuration not stated) | inactive: 127% |
| Cc1ccc(Cn2ccn(Cc3ccc(C)cc3)c(=O)c2=O)cc1 | inactive: 102% |
| CC1CCc2onc(C(=O)N3CCN(c4ccc(Cl)cc4)CC3)c2C1 (configuration not stated) | inactive: 83% |
| COc1ccc(N2C(=O)NC(NS(=O)(=O)c3ccc(NC(C)=O)cc3)(C(F)(F)F)C2=O)cc1 (configuration not stated) | inactive: 78% |
| CCOc1ccc(CNC(=O)CCCn2nc(C)c3c(C)n(-c4ccc(C)cc4)nc3c2=O)cc1 | inactive: 81% |
| CCOC(=O)c1cc2c(=O)n3ccccc3nc2n(CC(C)C)c1=NC(=O)C(C)(C)Oc1ccc(Cl)cc1 | inactive: 64% |
| Cc1ccc(C(=O)N2CC(=O)Nc3ccc(Br)cc3C2c2ccc(F)cc2)cc1C (configuration not stated) | inactive: 84% |

| SMILES | survival |
| --- | --- |
| CCc1ccc(NC(=O)Cn2cnc3nc4c(cc3c2=O)CCCC4)cc1 | inactive: 133% |
| Cc1ccc(C)c(N2CCN(C(=O)CCc3c(C)nc4c(c3C)c(=O)n(C)c(=O)n4C)CC2)c1 | inactive: 72% |
| CCN1CCN(C(=O)Cn2c(-c3cccs3)cc3cc(Cl)ccc32)CC1 | inactive: 72% |
| COc1ccc(CNC(=O)Cc2c(C)c3c(O)cc(C)cc3oc2=O)cc1 | inactive: 77% |
| COc1ccc(C(CNC(=O)c2oc3ccccc3c2C)N2CCCCC2)cc1 (configuration not stated) | inactive: 91% |
| CCc1ccc(-n2c3nc(=O)[nH]c(=O)c-3cc3c(C)nn(-c4ccccc4)c32)cc1 | inactive: 77% |
| COc1ccccc1CNC(=O)C1CCN(c2ncnc3c2nc2n3CCCCC2)CC1 | inactive: 78% |
| CC(C)CCNC(=O)c1c[nH]c2ccc(S(=O)(=O)Nc3cccc(C(F)(F)F)c3)cc2c1=O | inactive: 64% |
| NCc1ccc2[nH]c(=O)[nH]c2c1 | inactive: 104% |
| O=C(NCc1ccccc1)C(c1ccccn1)N(C(=O)c1csnn1)C1CC1 (configuration not stated) | inactive: 106% |
| Cc1noc(-c2ccc(N3CCCCC3C)c([N+](=O)[O-])c2)n1 (configuration not stated) | inactive: 116% |
| COc1cc(Cl)c(C)cc1NC(=O)c1c(C)oc2nc(C)nc(N3CCCC3)c12 | inactive: 124% |
| O=C1CCCc2cc(S(=O)(=O)N3CCCC(C(=O)NCc4ccccc4Cl)C3)ccc2N1 (configuration not stated) | inactive: 69% |
| CCc1nnc(NC(=O)CSc2nccn2Cc2ccccc2)s1 | inactive: 69% |
| O=C(Cn1c(-c2cccs2)cc2ccccc21)NCCCN1CCN(c2cccc(Cl)c2)CC1 | inactive: 80% |
| CC1CCCN(C(=O)Cc2cccc3ccccc23)C1 (configuration not stated) | inactive: 113% |
| Cc1ccc(-n2c(=O)c3oc4ccccc4c3n(Cc3ccccc3)c2=O)cc1C | inactive: 78% |
| O=C(/C=C/c1ccc(F)cc1)NC(=S)NCc1ccco1 | inactive: 120% |
| Cc1ccc(-c2noc(-c3nnn(CC(=O)Nc4ccc(C)cc4Cl)c3N)n2)cc1 | inactive: 51% |
| Cc1cc(C)cc(NS(=O)(=O)c2ccc3[nH]cc(C(=O)N4CCCCC4)c(=O)c3c2)c1 | inactive: 78% |
| CCC(=O)N1CCc2cc(CNS(=O)(=O)c3ccccc3F)ccc21 | inactive: 88% |
